Data set [1] in a line: Stability of trans-cyclooctene derivatives in PBS. In kind it is physicochemical. Conditions: PBS buffer, 20° C., in the dark.
A short description of data set [2]: Activation of doxorubicin prodrugs 38 by tetrazines (HPLC-MS). The settings on record: 20° C.
In data set [3] the test system is A431 squamous carcinoma cells. Put plainly: Cell proliferation assay (MTT) with doxorubicin prodrug minor-38 and tetrazine 7. In kind it is cell-based. Conditions: Homo sapiens, A-431, 72 h, A431 cell line.
In data set [4] the test system is A431 squamous carcinoma cells. Put plainly: Cell proliferation assay (MTT) with doxorubicin prodrug 50 and tetrazine 29. In kind it is cell-based. The settings on record: Homo sapiens, A-431, 6 h, A431 cell line, 6 h incubation at 37° C. followed by medium replacement. As for the experimental part: In a parallel experiment, a solution of tetrazine 29 (2 mM in PBS) was serially diluted (from 1 mM to 1 nM) in pre-warmed culture medium and added to A431 cells in a 96-well plate, which was incubated at 37° C. for 72 hrs.

A short description of data set [5]: Activation of doxorubicin prodrugs 50 and 51 by tetrazines (HPLC-MS). Conditions: after 1 hr at 20° C. The text has this: The half-life time of this release was 4 days.
Setting [6] is: activator tetrazine 7 (equimolar, c=25 µM), PBS, 16 hr.

The structures appear in SMILES notation.

In general, half-life refers to the time needed for the level to fall by half in the phase considered. Lower therefore signals fast loss. In turn, `O=C(NCc1ccccc1)OC1/C=C/CCCCC1` (stereo not drawn) [32 major isomer, (E)-cyclooct-2-en-1-yl benzylcarbamate] displayed a half-life at 83 µM in data set [1] above 20 days.

In data set [1], `Cc1cc(C)cc(NC(=O)OC2/C=C/CCCCC2)c1` (stereo not drawn) [33 minor isomer, (E)-cyclooct-2-en-1-yl(3,5-dimethylphenyl)carbamate] yielded a half-life at 83 µM above 20 days.

On to `COc1cccc2c1C(=O)c1c(O)c3c(c(O)c1C2=O)C[C@@](O)(C(=O)CO)C[C@@H]3OC1CC(NC(=O)OC2/C=C/CCCCC2)[C@H](O)C(C)O1` (some centres unmarked) [38 major, (E)-cyclooct-2-en-1-yl doxorubicin carbamate], for which, in data set [2] (setting [6]), the “conversion of the DA-reaction” value came to 40% and the “release of doxorubicin (yield)” value is 20%.

The term IC50 denotes the midpoint of a concentration-inhibition curve. As for `COc1cccc2c1C(=O)c1c(O)c3c(c(O)c1C2=O)C[C@@](O)(C(=O)CO)C[C@@H]3OC1CC(NC(=O)OC2/C=C/CCCCC2)[C@H](O)C(C)O1` (some centres unmarked) [38 minor, (E)-cyclooct-2-en-1-yl doxorubicin carbamate], in data set [1], the half-life at 83 µM is above 20 days. Besides, the “release of doxorubicin (yield)” value in data set [2] (activator 3,6-bis(2-aminophenyl)-1,2,4,5-tetrazine (9), acetonitrile/PBS, 18 hr) was found to be 90%; in data set [2] (activator tetrazine 7 (equimolar, c=25 μM), PBS, 4 hr), 69%. The IC50 in data set [3] (+ tetrazine 7 (10 μM, constant amount), 72 hr) was 278 ± 22 nM; in data set [3] (+ tetrazine 7 (1.5 eq., serial dilutions), 72 hr) it was 137 ± 12 nM; in data set [3] (compound alone, 72 hr incubation, ± standard error), 3020 ± 486 nM.

Take `COc1cccc2c1C(=O)c1c(O)c3c(c(O)c1C2=O)C[C@@](O)(C(=O)CO)C[C@@H]3OC1CC(NC(=O)OCc2ccc(OC(=O)NC3CC/C=C/CCC3N)cc2)C(O)C(C)O1` (some centres unmarked) [Prodrug 50]: the IC50 was found to be 49 ± 4 nM in data set [4] (+ tetrazine 29 (10 μM)) and 128 ± 17 nM in data set [4] (compound alone). The doxorubicin released in data set [5] (activator 3,6-diphenyl-1,2,4,5-tetrazine) is listed as 48%; in data set [5] (activator 3-(5-acetamido-2-pyridyl)-6-(2-pyridyl)-1,2,4,5-tetrazine (5)), 30%; in data set [5] (activator 3-(5-butyramido-2-pyridyl)-6-(2-pyrimidyl)-1,2,4,5-tetrazine), 20%; in data set [5] (activator 3-methyl-6-(2-pyridyl)-1,2,4,5-tetrazine (7)) it was 52%; in data set [5] (activator 4-(1,2,4,5-tetrazin-3-yl)phenylmethanamine), 50%.

Values taken from patent publication US9421274B2, “Bio-orthogonal drug activation” (Koninklijke Philips N.V., priority 2011, dated 2016).
